The source gives no read counts; variants with many changes may rest on few reads.

B1: CPEB3 Ribozyme (parent)
chain: UAACAGGGGGCCACAGCAGAAGCGUUCACGUCGCAGCCCCUGUCAGAUUCUGGUGAAUCUGCGAAUUCUGCUGUAUAUCUC

Variants of B1 are the subject of this series. Put plainly: self-cleavage, relative activity (ratio to wild type); higher = more cleavage; in vitro, sequencing. Put shortly: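 Relative activity compares each variant's cleaved/total read fraction with that of the unmutated ribozyme. To get these fractions, barcoded CPEB3 ribozyme libraries from rounds of error-prone PCR were transcribed with T7 RNA polymerase for 5 hours at 37°C and then given 15 min of DNase I treatment before EDTA was added. The RNAs were reverse transcribed with template switching and sequenced on Illumina, and DNA sequencing linked barcodes to variants. A minimum of 5 reads applied, and three batches were averaged.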
As for UAGCAGGGGGCCACAUCAGAAGCGUUCGCGUCGCAGCCCCUGUCAGAUUAUGGUGAAUCUGCGAAUUCUGCUGUAUAUCUC, the self-cleavage was found to be 0.09.
For UAGCAGGGGGCCACAGCAGAAGCGCACACGUCGCAGCCCCUGUCAGAUUCUGUUGAAUCUGCGAAUCCUGCUGUAUAUCUC the value was 0.24; for UAGCAGGCGCCCACAGCAGAAGCGUCCACGUCGCAGUCCCUGUCAGAUUCUGGUGAAUCUGCGAAUUCUGCCGUAUAUCUC, 0.06.
With UAGCAGGUGGCCACAGCAGAAGCGUUCACGUCGCAGCCCCUGUCAGAUUCUGGUGAAUCUGCGAACUCUGCUGUAUAUCUC, the self-cleavage is 0.13.
For UAGCAGGGGGCCACAGCAGAAGCGAUCACGUCGCAGCCCCUGUCAGAUUCUGGUGAUUCUGCGAAUUCUGCUGUAUAUCUC the value was 0.14; for UAGCAGGGGGCCACAGCAGAAGCGUUCACAUCGCAGCCUCUAUCAGAUUCUGGUGAAUCUGCGAAUUCUGCUGUAUAUCUC, 0.27.
As to UAGCAGGGGGCCACAGCAUAAGCGUUCACGUCGCAGCCCCUGUCAGAUUCUGGUGAAUCUGCGAAUUCUGCUGUAUAUCCC, the self-cleavage is 0.55.
Next, UAGCAGGGGGCCACAGCAGAAGCGCUCACGCCGCAGCCCCUGUCAGAUUCUGGCGAAUCUGCGAUUUCUGCUGUAUAUCUC: 0.17.
Next, UAGCAGGGGGCCACAGCAGAAACGUUCACGUCGCAGCUCCUGCCAGGUUCUGGUGAAUCUGCGAAUACUGCUGUAUAUCUC: 0.04; UAGCAGGGGGCCACAGCAGAAGCGUUCACGUCGCAUCCCCUGUCAGAUUCUGGUGGAUCUGCGAAUUCUGCUAUAUAACUC: 0.27; UAGCAGGGGGCCACAGCAGAAGCGAUCACGUCGCAGCCCCUGUCAGAUUCUGGUGAAUCUGCGAAAUCUGCUGUAUAUCUC: 0.58.
Next, UAGCAGGGGCCCACAGCAGAAGCGUUCACGUCGCAGCCCCUGCCAGAUUCUGGUGAAUCUGAGAAUUCUGCUUUAUAUCUC: 0.05; UAGCAGGGGUCUACAGCAGAAGCGUUCACGCCGCUGCCCCUGUCAGAUUCUGGUGAAUCUGCGGAUUCUGCUGUAUAUCUC: 0.06.
Consider UAGCAGGUGGCCUCAGCACAAGCGUCCACGUCGCAGCCCCUGUCAGAUUCUGGUGAACCUGCGAAUUCUGCUGUAUAUCUC, for which the self-cleavage stood at 0.07.
Next, UAGCAGGAGGCCACAGCAGAAGCGUUCACGUCGCAGCCCCUGGCAGAUUCUGGUGAAUCUGCGGAUUCCGCUGUGUAUCCC: 0.06; UAGCAGGGGGCCACAGCAGAAGCGUUCACGUCGCACCCCCAGUCAGAUUCUGGUGGAUCAGCGAAUUCUGCUGUAUAUCUC: 0.14.
For UAGCAGGGGGCCACAGCAGAAGCGCUCACGUCGCAGCCCCUGUCAGAUUCUGGUGGAUCUGCGAAUUCUGCUGUAUAUCUC the value was 0.35; for UAGCAGGGGGCCACAGCAGAAGCUUUCACGUCGCAGCCCCUGUCACACUCUGGUGAAUCUGCGAAUCCUGCUGAAUAUCUC, 0.09; for UAGCAGGGGGCCACAGCAGAAGCGUUCACGUCGCAGCCCCUGUCAGAUUCUGGUGAAUCUAGGAAUUCUGCAGUACAUCUC, 0.32.
Next, UAGCAGGGGGCCACAGCAGAAACGCUCACGUCGCAGCCCCUGUCAGAUUCUGGUGAAUCAGUGAAUUCGGCUGAAUAUCUC: 0; UAGCAGGGGGCCACAGCAGAAGCGUUCACAUCGCAGCCCCUGCCAGAUUCUGGUGAAUCUGCGGAUUCUGCAGUAUAUCUC: 0.07.
As for UAGCAGGGGGCCACAGCAGAAGCGCUCACGUCACAGCCCCCGUCAGAUUCGGGUAAAUCUGCGAAUUCUGCUGUAUAUCCC, the self-cleavage stood at 0.16.
For UAGCAGGUGGCCACAGCAGUAGCGAUCACGUCGCAGCCCCUGUCUGAUUCUGGUGAAUCUGCAAAUUCUGCAGUAUAUCUC, the self-cleavage is 0.04.
Next, UAGCAGGGGGCCACAGCAGAAGCGUUCACGUCACAGCCCCUGUCAGAUUCUGGUGAAUCUGCGAAGACUGCUGUAUAACUC: 0.31; UAGCAGGGGGCCACAGCAGAACCGAUCACGUCGCAGCCCCUGCCAGAUUCUGGUGAAUCUGCGAAUUAUGCUGUAUAGCUC: 0.07.
For UAGCAGGGGGCCACAGCAGAAGCGUUCACGUCGCAUCCCCUGUCAGAUACUGGUGAAUCUGCGAAUUCUGCUGUAUACCUC the value was 0.24; for UAGCAGGGGGCCACAGCAGAAGCGUUCACGUCGCAGCCCCUGUCAGAUUCUGAUGAGUCUGCGAAUUCUGCUGUAUAUCUC, 1.11.
Next, UAGCAGGAGGCCACAGCAGAAGCGUUCACGUCGCUGCCCCUGUCAGAUUCUGGUGAAUCUGCGAAUUCUGCUGUAUAUCUC: 0.51; UAGCAGGGGACCACAGCAGAAGCGUUCACGUCGCGGCCCCUGUCAGAUUCUGGUGAAUCUGCGGAUUCUGCUGUAUAUCUC: 0.53; UAGCAGGGGGCCACAGCAGAAGCGCUCACGUCGCAGCCCCUGUCAGAUUCUGGUGGAUCUGCGAAUUCUGCAGUAUAUCUC: 0.42.
As for UAGCAGGGGGCCACAGCAGAAGCGUUCACAUCGCUGCCCCUGUCAGGUUCUGGUGAAUCUGCGAAUUCUGCUGUAUAUCUC, the self-cleavage stood at 0.17.
Next, UAGCAGGGGGCCACAGCACAAGCGUUCACGUCGCAGCCCCUGUCAGAUUCUGGUGCAUCUGCGGAUUCUGCUGUAUAUCUA: 0; UAGCAGGGGGCCACAGCAGAAGCGCUCACGUCUCAGCCCCUGUCAGAUUCUGGUGAAUCUGCGAAUUCUGCUGUAUAUCUC: 0.18; UAGCAGGGGGCCACAGCAGAAGCGUUCACGUCGCAGCCCCUUUCGGAUUCUGGUGAAUCUGCGAAUUCUGCUGAAUGUCUC: 0.47.

The record behind these values is the RNAGym collection of RNA variant scans (doi:10.1093/nar/gkz1192).
